Measured values: PubChem BioAssay AID1240 (Sanford-Burnham Center for Chemical Genomics, 2008)
Screen size: about 50,000 compounds; about 800 (1.6%) showed an effect of 50% or more. The list shows a part of the results.

target: Bcl-2-like protein 10 (Homo sapiens) (UniProt Q9HD36); test: Phenotype converters, Bcl-B/TR3 peptide binding displacement, primary biochemical FP (AID 1240); details: GST-Bcl-B / FITC-TR3 peptide fluorescence polarization; stronger effect = higher value; compound at 3.75 mg/L;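 also: 0% = Bcl-B with tracer peptide and DMSO and 100% = tracer peptide lacking Bcl-B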
UniProt Q9HD36, sequence (Q9HD36 whole entry, looked up): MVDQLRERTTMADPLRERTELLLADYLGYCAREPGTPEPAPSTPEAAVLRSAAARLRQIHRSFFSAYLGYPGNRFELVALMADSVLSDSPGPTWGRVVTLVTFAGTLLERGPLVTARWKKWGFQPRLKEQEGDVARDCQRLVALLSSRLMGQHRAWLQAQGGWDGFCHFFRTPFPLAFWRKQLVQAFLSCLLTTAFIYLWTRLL

Compound	displacement [%]
O=C(CC(c1ccccc1)c1ccccc1)Nc1cccnc1	-3.3
Cc1ccc(C(=O)Nc2nc(-c3ccc4c(c3)Cc3ccccc3-4)cs2)cc1	13.8
O=S(=O)(NCC1CCCO1)c1ccc(Br)c2ccccc12 (stereo unspecified)	-1.3
CCOc1ccc(C(=O)Nc2ccc(-c3cc4ccccc4oc3=O)cc2)cc1	17.6
Cc1ccc(NC(=O)CCNS(=O)(=O)c2ccc(C)cc2)cc1	12.9
COc1ccc(-n2c(SCC(=O)Nc3ccccc3C)nc(O)cc2=O)cc1	-12.6
C=CCOC(=O)C1=C(C)NC(C)=C(C(=O)OCC=C)C1c1ccc(N(C)C)cc1	15.9
CC(=O)c1cccc(NC(=O)c2ccc(C)c(C)c2)c1	1.4
O=c1oc(COc2ccccc2Cl)nc2ccccc12	0.4
O=C(COc1ccc2c(c1)oc(=O)c1ccccc12)OCc1ccccc1	7.5
Cc1ccc(/C=C2/SC(=S)N(NC(=O)c3ccccc3Br)C2=O)o1	28.3
CCN1C(=O)/C(=C\c2ccc(-c3ccc([N+](=O)[O-])cc3Cl)o2)SC1=S	19.5
O=Cc1cc(Cl)c(OCc2ccccc2Cl)c(Cl)c1	-1.6
O=C(c1ccco1)N(Cc1ccccc1)C(Cc1ccccc1)c1cccs1 (stereo unspecified)	6.6
COc1ccc(S(=O)(=O)Nc2ccc(S(N)(=O)=O)cc2)cc1	3.3
CCCc1cc(=O)oc2cc(C)cc(OCC(C)=O)c12	9.2
O=C(Nc1cccc(Cl)c1)c1cccc(NC(=O)c2ccc(Cl)cc2Cl)c1	-16.3
CS(=O)(=O)c1ccc2nc(NC(=O)c3cc(-c4ccccc4)nc4ccccc34)sc2c1	-2.6
O=C(CSc1ccccc1)Nc1nnc(CCC(=O)c2ccccc2)s1	-5.3

Compound	displacement [%]
COc1ccc([N+](=O)[O-])cc1NC1CCC(c2ccccc2)CC1 (stereo unspecified)	31.5
COc1ccc(/C(C)=N/NC(=O)CSCc2cccc(Cl)c2)cc1OC	-11.5
O=C(CCCN1C(=O)c2ccccc2C1=O)Nc1cccnc1	20.6
COc1ccc(CC(=O)N=Nc2c(O)n(CN3CCN(C)CC3)c3ccccc23)cc1	-3
Cc1ccc(S(=O)(=O)N2CCN(C(=O)COc3ccccc3)CC2)cc1	-2.9
O=C(Nc1cccnc1)c1cnn2c(C(F)(F)F)cc(-c3cccs3)nc12	-13.9
Cc1ccc(/C=N/NC(=O)/C(=C\c2ccc3c(c2)OCO3)NC(=O)c2ccccc2)o1	-18.2
COc1ccccc1N1CCN(C(=O)COc2ccccc2)CC1	3
CCOc1ccc(CN2CCN(S(C)(=O)=O)CC2)cc1	12.7
COCCNC(=O)C(=O)Nc1ccccc1C	12.1
COc1cc(/C=C2/SC(=S)N(c3ccccc3)C2=O)cc(Cl)c1OCc1ccccc1	13.4
CCCCNCCOCCOc1ccc(OC)cc1	-4.2
Oc1ccc(Br)cc1C=Nc1ccc(Cl)c2cccnc12	-7.3
N#Cc1c2n(c3c(NCCCO)ncnc13)CCCCC2	-8.3
O=C(O)c1ccc(N2C(=O)CC(Cc3ccc(Cl)cc3)C2=O)cc1 (stereo unspecified)	13.8
O=C1NC(=S)N/C1=C/c1ccc(-c2cccc(Cl)c2Cl)o1	12.4
COc1ccc(NC(=O)C2CC(=O)N(c3ccccc3)C2)cc1 (stereo unspecified)	-2.5
CCCCCCN1C=CC(=C2C(=O)c3ccccc3C2=O)C=C1	-4.8
CCOc1ccc(/C=N/N2CCN(c3ccccc3OC)CC2)cc1OC	8

Compound	displacement [%]
COc1ccc(/C=C/C(=O)NCc2ccccc2C)cc1	0.8
COCCNC(=O)CN(c1cccc([N+](=O)[O-])c1)S(=O)(=O)c1ccccc1	-7.8
CCC(=O)Nc1c(-c2ccccc2)nc2ccc(C)cn12	10.8
O=C(c1cccs1)N(Cc1ccccc1)Cc1ccccc1	-5.4
O=C(Nc1ccc([N+](=O)[O-])cn1)c1cc(-c2ccc(Cl)c(Cl)c2)nc2ccccc12	52.4
Cc1cc(=O)oc2c(C)c(OCc3ccccc3)ccc12	-3.1
COc1cc(/C=C2\C=C(c3ccc(Br)cc3)OC2=O)c([N+](=O)[O-])cc1OC	55
Cc1cc(I)ccc1NC(=O)/C=C/c1ccccc1Cl	8.7
CN(C)/C=C/c1oc2ccc(Oc3ncccc3C#N)cc2c1[N+](=O)[O-]	-10.4
CCOc1ccccc1C(=O)Nc1sc2c(c1C(=O)OC)CCCC2	7.8
COc1ccc(/C=C2/C(=O)N(c3cccc(C(F)(F)F)c3)N=C2C)cc1OC	-3.3
COc1cccc(C(=O)Nc2ccc3nn(-c4ccc(Cl)cc4)nc3c2)c1	26.8
CCN(CC)CCNc1c(N)c(=O)oc2ccccc12	6.6
O=C(NN1C(=O)/C(=C/c2ccccc2)SC1=S)c1ccccc1Br	2.6
Cc1ccc(C(C)C)c(OCCN)c1	10.3
C/C(=N\N1CCN(c2ccccc2)CC1)c1ccccc1O	15.8
COc1ccccc1OCC(=O)NCCc1nc2ccccc2[nH]1	5.2
CCOC(=O)c1c(NC(=O)COc2ccc(Cl)cc2)sc2c1CCC2	20.3
